# Laboratory results: the RNAGym collection of RNA variant scans (doi:10.1093/nar/gkz1192)
# The source gives no read counts; variants with many changes may rest on few reads.
# B1: CPEB3 Ribozyme (parent)
# chain: UAACAGGGGGCCACAGCAGAAGCGUUCACGUCGCAGCCCCUGUCAGAUUCUGGUGAAUCUGCGAAUUCUGCUGUAUAUCUC
# Variants of: B1
# Experiment: self-cleavage, relative activity (ratio to wild type); higher = more cleavage; in vitro, sequencing
# Outline: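 CPEB3 self-cleaving ribozyme mutant libraries were made by rounds of error-prone PCR, barcoded, and transcribed in vitro with T7 RNA polymerase for 5 hours at 37°C. Cleavage occurred during transcription and a 15 min DNase I step before EDTA stop. RNAs were reverse transcribed with template switching and Illumina-sequenced, with DNA sequencing mapping barcodes to variants. Relative activity is the variant's cleaved/total read fraction divided by wild type's (minimum 5 reads), averaged across three batches.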
row,Variant,self-cleavage
1,UAACAGGGGGCCACAGCAGUAGCGUUCACGUCGCAGCCCCUGUCUGAUUCUGGUGAAUCUGCGAAUUCCGCUGUAUAUCUC [A20U A45U U69C],0.45
2,UAACAGGGGGCCACAGCAGUAGCGUUCACGUCGCCGCCCCUGUCAGAUUCUGGUGAAUCUGCGAAUUCUGCUGUAUAUCUU [A20U A35C C81U],0.14
3,UAACAGGGGGCCACAGCAGGAGCGUUCACGUCGCAGCCCCUGUCAGAUUCUGGUGAAUCUGCGAAUUCUGCUGUAUACCAC [A20G U78C U80A],0.87
4,UAACAGGGGGCCACAGCAGUAGCGUUAACGUCGCAGCCCCUGUCAGAUUCUGGUGAAUCUGCGAGUUCUGCUGUAUAUCUC [A20U C27A A65G],0.22
5,UAACAGGGGGCCACAGCAGUAGCGUUCGCGUCGCAGCCCCUGUCAGAUUCUGGUGAAUCUGCGAAUCCUGCUGUAUAUCUC [A20U A28G U67C],0.06
6,UAACAGGGGGCCACAGCAGUAGCGUUCACGUCGCAGCCCCUGUCAGAUUCUGGUGAAUCUGCGGACUCUGCUGCAUAUCUC [A20U A64G U66C U74C],0.23
7,UAACAGGGGGCCACAGCAGUAGCGUUCACGUCGCAGCCCAUGUCAGAUUCUGGUGGAUCUGCGAAUCCUGCUGUAUAUCUC [A20U C40A A56G U67C],0.13
8,UAACAGGGGGCCACAGCAGUAGCGUUCUCGACGCAGCCCCUGUCAGAUUCUGGUGAAUCUGCGAAUUCUGCUGUAUAUCUC [A20U A28U U31A],0.19
9,UAACAGGGGGCCACAGCAGUAGCGCUCACGUCGCGGCCCCUGUCAGAUUCUGGUGAAUCUGCGAAUUCUGCCGUAUAUCUC [A20U U25C A35G U72C],0.07
10,UAACAGGGGGCCACAGCAGUAGCGUUCACGUCGCUGCCCCUGUCAGAUUCUGGUGAAUCCGCGAAUUCAGCUGAAUAUCCC [A20U A35U U60C U69A U74A U80C],0.1
11,UAACAGGGGGCCACAGCAGUAGCGUUCACGUCGCAGCCCCUGUCAGAUUCUGGUGUAUCUGCGAAUUCUGCUGUAUAUCCC [A20U A56U U80C],0.11
12,UAACAGGGGGCCACAGCAGUAGCGUUCUCGUCGCAGCCCCCGCCAGAUACUGGUGAAUCUGCGAAUUCUGCUGUAUAUCGC [A20U A28U U41C U43C U49A U80G],0.8
13,UAACAGGGGGCCACAGCAGUAGCGUUCACGUCGCAGCCUCUGUCAGGUUCUGAUGAAUCUGUGAAUUCUGCUGUAUAUCUC [A20U C39U A47G G53A C62U],0.17
14,UAACAGGGGGCCACAGCAGUAGCGUUCACGUCGCAGCCCCUGUCAGAUUCUGGUGAAUCUGCGAGUCCUGCUGUAUAUCUC [A20U A65G U67C],0.1
15,UAACAGGGGGCCACAGCAGUAGCGUUCACGUCGCAGCCCCUGUCAGGUUCUGGUGAUCCUGCGAAUUCUGCUGUAUAUCUC [A20U A47G A57U U58C],0.17
16,UAACAGGGGGCCACAGCAGUGGCGUUCACGUCGCAGCCCCUGUCCGAUUCGGGUAAACCUGCGAAUUCUGCUGAAUAUCUC [A20U A21G A45C U51G G55A U58C U74A],0.04
17,UAACAGGGGGCCACAGCAGUAGCGUUCACGUAGCAGCCCCUGUCAGAUUCUGGUGAAUCUGCGAAUUCUGCUGUAUGUCUC [A20U C32A A77G],0.07

row,Variant,self-cleavage
1,UAACAGGGGGCCACAGCAGUAGCGUUCACGUCGCAGCCCCUGUCGGAUUCUGGUGAACCUGCGAACUCUGCUGUAUAUUUC [A20U A45G U58C U66C C79U],0.2
2,UAACAGGGGGCCACAGCAGUGGCGUUCACGUCGCAGCCCCUGUCAGAUUCUGGUGAACCUGCGAAUUCUGCUGUAUAUCUC [A20U A21G U58C],0.13
3,UAACAGGGGGCCACAGCAGUGGCGUUCACGCCGCAGCCCCUGUCAGAUUCUGGUGAAUCUGCGAAUUCUGCUGUAUAUCUC [A20U A21G U31C],0.17
4,UAACAGGGGGCCACAGCAGUAGCGUUCGCGUCGCAGCCCCUGUCAGAUUCCGGUGAAUCUGCGAAUUCCGCUGUCUAUCUC [A20U A28G U51C U69C A75C],0.1
5,UAACAGGGGGCCACAGCAGUAGCGUUCACGUCGCAGCUCCUGCCAGAUUCUGGUGAAUCUGCGAAUUCUGCCGUAUGUCUC [A20U C38U U43C U72C A77G],0.07
6,UAACAGGGGGCCACAGCAGUAGCGUUCACGUCGCAGCCACUGUCAGAUUCUGGUGAACCUGCGAAUUCUGCUGUAUAUCAC [A20U C39A U58C U80A],0.35
7,UAACAGGGGGCCACAGCAGUAGCGUUCGCGUCGCAGCCCCUGUCAGAUUCUGGUGAAUCUGCGAAUUCUGCUGUAUGUCUC [A20U A28G A77G],0.26
8,UAACAGGGGGCCACAGCAGUAGCGUUAACAUCGCAGCCCCUGUCAGAUUCUGGUGAAUCUGCGAGUUCUGCUGUAUAUCUC [A20U C27A G30A A65G],0.18
9,UAACAGGGGGCCACAGCAGUAGCGUUCACGUCGCUGCCCCUGUCAGGUUCUGGUGAAUCUGCGAAUUCAGCUGUAUAUCUC [A20U A35U A47G U69A],0.13
10,UAACAGGGGGCCACAGCAGUAGCGUUCACGUCGCGGCCCCUGUCAGAUUCUGGUGGAUCCGCGAAUUCUGCUGUAUACCUC [A20U A35G A56G U60C U78C],0.28
11,UAACAGGGGGCCACAGCAGUAGCGUUCACGUCGCAGCCCCUGUCAGAUUCUGGUGAGUCCGCGAAUUCUGCUGUAUAUCUC [A20U A57G U60C],0.19
12,UAACAGGGGGCCACAGCAGUAGCGAUCACGUCGCAGCCCCUGUCAGAUUCUGGAGAAUCUGCGAAUUCUGCAGUAUAUCUC [A20U U25A U54A U72A],0.13
13,UAACAGGGGGCCACAGCAGUAGCGAACACGACGCAGCCCCGGCCAGAUUCUGGUGAAUCUGUGAAUUCUGCUGUAUAUCUC [A20U U25A U26A U31A U41G U43C C62U],0.09
14,UAACAGGGGGCCACAGCAGUAGCGUUCAUGUCGCAGCCCCUGUCAGAUUCUGGUGAAUCUGCGAGUUCUGCUGAAUAUCUC [A20U C29U A65G U74A],0.07
15,UAACAGGGGGCCACAGCAGUAGCGUUCACGUUGCGGCCCCUGUCAGAUUCUGGUGAAUCUGCGAAUUCUGCUGUAUCCCUC [A20U C32U A35G A77C U78C],0.13
16,UAACAGGGGGCCACAGCAGUGGCGUUCACGUCGCUGCCCCUGUCAGAUUCUGGUGAAUCUGCGAAUUCUGCUGUAUAUCUC [A20U A21G A35U],0.16
17,UAACAGGGGGCCACAGCAGUGGCGUUCACGUCGCGGCCCCUGUCAGAUUCUGGUGAAUCUGCGAAUUCUGCUGUAUAUCUC [A20U A21G A35G],0.3
